Measured values from PubChem BioAssay AID1460 (National Center for Advancing Translational Sciences (NCATS), 2008).
In all, about 270,000 compounds went through this assay and about 5,800 (2.1%) were called active. The inconclusive results got no clear call from the source; some entries with a clear call stand among them for comparison. Calls come from the whole dose curve; as a rule, active = well fitted inhibition curve with a large enough effect; inconclusive = small, poorly fitted or top-dose-only effect; inactive = flat fitted curve, though single readings scatter. Where the call is inconclusive, the potency comes from a doubtful curve fit.

Molecular target: Microtubule-associated protein tau (Homo sapiens) (UniProt P10636)
UniProt P10636, sequence (P10636 whole entry, looked up): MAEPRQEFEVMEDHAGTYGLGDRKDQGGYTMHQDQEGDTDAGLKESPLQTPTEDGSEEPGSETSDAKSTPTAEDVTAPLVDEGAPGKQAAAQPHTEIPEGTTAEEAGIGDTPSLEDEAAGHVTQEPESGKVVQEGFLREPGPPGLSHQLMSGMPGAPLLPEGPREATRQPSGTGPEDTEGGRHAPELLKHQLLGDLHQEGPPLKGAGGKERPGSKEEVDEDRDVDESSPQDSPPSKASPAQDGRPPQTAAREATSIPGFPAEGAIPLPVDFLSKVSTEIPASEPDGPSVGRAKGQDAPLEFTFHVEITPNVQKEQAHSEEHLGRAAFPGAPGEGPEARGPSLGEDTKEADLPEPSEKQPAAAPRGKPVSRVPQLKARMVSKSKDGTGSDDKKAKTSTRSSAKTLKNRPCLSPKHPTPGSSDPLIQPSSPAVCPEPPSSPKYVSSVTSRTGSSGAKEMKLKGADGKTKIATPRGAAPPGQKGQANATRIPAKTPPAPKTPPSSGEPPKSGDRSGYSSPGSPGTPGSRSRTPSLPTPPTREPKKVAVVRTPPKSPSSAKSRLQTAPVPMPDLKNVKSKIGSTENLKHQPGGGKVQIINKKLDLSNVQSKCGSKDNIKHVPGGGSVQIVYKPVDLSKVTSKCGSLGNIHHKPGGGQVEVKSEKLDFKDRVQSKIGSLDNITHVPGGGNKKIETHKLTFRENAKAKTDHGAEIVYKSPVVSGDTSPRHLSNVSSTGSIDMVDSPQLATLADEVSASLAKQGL
Assay: qHTS for Inhibitors of Tau Fibril Formation, Thioflavin T Binding; note: nearly all actives have a fitted effect of over 55% in size
Conditions: recombinant tau K18 P301L, heparin-induced fibrillization, ThT fluorescence; series mostly up to 57.4 µM; activity, negative = inhibition: at the top concentration
In short: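 Using a mix of unlabeled (15 uM) and Alexa 594-labeled (0.24 uM) tau K18 P301L, heparin-triggered fibrillization over 6 hr at 37 C was scored by ThT fluorescence.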
% is set by controls: 0 for no effect and ±100 for the full control effect; potency is the fitted concentration of half-maximal effect; tags give direction and shape of the fitted curve.

Structure (SMILES) | Potency | activity, negative = inhibition
CCc1cc(N2CCOCC2)cc2c1[nH]c1ccccc12 | inconclusive: 25.1 µM [inhibitor, partial curve] | 
Cn1c(=O)n(C)c2cc(NS(=O)(=O)c3ccc(Br)cc3)c(NCc3ccccc3)cc21 | inconclusive: 25.1 µM [inhibitor, single point] | 
Cc1ccc(-c2n[nH]c(=S)n2/N=C/C=C/c2ccccc2[N+](=O)[O-])cc1 | inconclusive: 6.31 µM [inhibitor, full curve] | 
O=C1c2ccccc2-n2c1nc1ccccc1c2=O | inconclusive: 17.8 µM [inhibitor, partial curve] | 
Cc1cc(N2CCCCC2)nc2ccc(NC(=O)c3cccc(F)c3)cc12 | inconclusive: 7.94 µM [inhibitor, partial curve] | 
O=C1CN(C(=O)Cn2ncc(Cl)c(Cl)c2=O)c2ccccc2N1 | inconclusive: 39.8 µM [inhibitor, single point] | 
Cn1cccc1/C=C1\SC(=O)N(CC(=O)Nc2ccc(Cl)cc2)C1=O | inconclusive: 10 µM [inhibitor, partial curve] | 
COc1ccc(Nc2ccc(N3C(=O)CC(C)C3=O)cc2[N+](=O)[O-])cn1 (configuration not stated) | inconclusive: 20 µM [inhibitor, partial curve] | 
COc1ccc(C2C(=O)N(C3CCC(C)CC3)CC(=O)N2CCc2ccccc2)cc1OC (configuration not stated) |  | inactive: 8.71%
CCOC(=O)c1sc(N2N=C(C)/C(=C\c3ccc(OCC(=O)OC)cc3)C2=O)nc1C | inconclusive: 3.55 µM [inhibitor, full curve] | 
COc1ccccc1OCC(=O)NCCSCc1cccc(Cl)c1 | inconclusive: 22.4 µM [inhibitor, single point] | 
CCCCc1nc2ccccc2n2c(-c3ccc(C)cc3)c3c(=O)n(C)c(=O)n(C)c3c12 | inconclusive: 20 µM [inhibitor, single point] | 
COC(=O)c1ccc(-c2nc3ccccc3o2)cc1 | inconclusive: 2.51 µM [inhibitor, full curve, poor fit] | 
O=S(=O)(Nc1cccc(-c2ccc(N3CCCCC3)nn2)c1)c1cccc(F)c1 |  | inactive: -15.9%
CO[C@@H]1[C@@H](OC(N)=O)[C@@H](O)[C@H](Oc2ccc3c(O)c(NC(=O)c4ccc(O)c(CC=C(C)C)c4)c(=O)oc3c2C)OC1(C)C |  | inactive: -21.6%
CCn1c(=O)c2cc(C(=O)N3CCN(C(=O)c4ccco4)CC3)sc2c2ccccc21 | inconclusive: 17.8 µM [inhibitor, partial curve] | 
Cc1c(C)n(Cc2ccc(Cl)cc2)c2ccc(C(=O)NCCc3ccc(S(N)(=O)=O)cc3)cc12 |  | inactive: -2.45%
CC(=O)Oc1c(C(=O)c2nnc(C)o2)c(=O)n(Cc2ccccc2)c2ccccc12 | inconclusive: 31.6 µM [inhibitor, single point] | 
COCCCNC(=O)c1cc2c(=O)n3cccc(C)c3nc2s1 |  | inactive: -4.46%
N[C@@H](Cc1ccccc1)c1nnc2sc(SCc3ccccc3)nn12 |  | inactive: -16.3%
Nc1c(-c2nc(-c3ccc(Cl)cc3)cs2)c2ccccn2c1C(=O)c1ccc2c(c1)OCO2 | inconclusive: 1.12 µM [inhibitor, full curve] | 
Cc1ccc2oc(=O)c3cnn(CC(=O)Nc4cccc(C(F)(F)F)c4)c3c2c1 |  | inactive: 10.3%
Nn1c(COc2cccc(Br)c2)nnc1SCC(=O)N1CCc2ccccc2C1 | inconclusive: 22.4 µM [inhibitor, partial curve, poor fit] | 

Structure (SMILES) | Potency | activity, negative = inhibition
COC(=O)c1c(NC(=O)C2CC=CCC2C(=O)O)sc(C(N)=O)c1C (configuration not stated) | inconclusive: 28.2 µM [inhibitor, partial curve] | 
Cc1ccc2c(c1)N=C(c1ccc(Cl)cc1)CO2 | inconclusive: 28.2 µM [inhibitor, partial curve] | 
O=C(NCC(c1ccco1)S(=O)(=O)c1ccc(Cl)cc1)c1ccccc1F (configuration not stated) |  | inactive: 2.61%
O=Nc1c(-c2c(O)[nH]c3cc(Br)ccc23)[nH]c2ccccc12 | active: 2.24 µM | 
COc1ccc(-c2nn3c(=O)cc(CN4CCN(C(=O)Nc5ccc(C)c(Cl)c5)CC4)nc3s2)cc1 | inconclusive: 15.8 µM [inhibitor, partial curve, poor fit] | 
CCC(=O)Nc1ccccc1C(=O)OCC(=O)c1cccc2ccccc12 | inconclusive: 15.8 µM [inhibitor, partial curve, poor fit] | 
CC(C)OCCCNC(=O)CCCn1c(SCC(=O)c2ccc(F)cc2)nc2c(sc3ccccc32)c1=O |  | inactive: -0.344%
COc1cc2c(cc1OC)CN(C(=O)CCN1C(=O)C3CCCCC3C1=O)CC2 (configuration not stated) |  | inactive: -1%
Cc1noc(C)c1COC(=O)/C=C/c1ccccc1Cl |  | inactive: -14.2%
O=[N+]([O-])c1cc(-c2nc(-c3cccnc3)no2)ccc1NCc1ccccc1 |  | inactive: 3.63%
CC(C)c1ccc(NC(=O)CN2C(=O)COc3ccc(S(=O)(=O)Nc4ccccc4)cc32)cc1 |  | inactive: 7.66%
CCOc1ccc(Nc2nc3ccccc3n3c(CC)nnc23)cc1 | inconclusive: 11.2 µM [inhibitor, partial curve] | 
Cc1ccc(C(=O)N2CCc3cc(CNC(=O)COc4ccccc4)ccc32)cc1 | inconclusive: 44.7 µM [inhibitor, single point] | 
O=[N+]([O-])c1ccc2c(c1)CNc1ccccc1O2 | inconclusive: 17.8 µM [inhibitor, partial curve] | 
NC(=O)c1ccc(NC(=O)COc2ccc([N+](=O)[O-])cc2Cl)cc1 | inconclusive: 7.94 µM [inhibitor, full curve] | 
CN(C)S(=O)(=O)Oc1cccc(C(=O)Nc2ccc([N+](=O)[O-])cc2)c1 |  | inactive: -6.03%
O=S(=O)(Nc1nc2ccccc2nc1Nc1ccc2c(c1)OCO2)c1ccccc1 | inconclusive: 7.94 µM [inhibitor, full curve] | 
C/C(=N\Nc1ccc(F)cc1F)c1ccc(N2CCOCC2)cc1 | inconclusive: 22.4 µM [inhibitor, partial curve] | 
N[C@@H](Cc1ccc(O)cc1)c1nnc([C@H](CC(=O)O)NC(=O)C2CCNCC2)o1 |  | inactive: -13.3%
O=C1OCCC1Sc1ncnc2sc3c(c12)CCC3 (configuration not stated) |  | inactive: -0.886%
Cc1cccc(C)c1NC(=S)N=Nc1c(O)n(C)c2ccc(S(=O)(=O)N3CCOCC3)cc12 | inconclusive: 14.1 µM [inhibitor, partial curve] | 
CSc1nc2sc3c(c2c(=O)n1-c1ccccc1C)CCCC3 | inconclusive: 25.1 µM [inhibitor, partial curve] | 
C=CCNC(=O)/C(C#N)=C\c1cc(Cl)c(O)c(OCC)c1 | inconclusive: 22.4 µM [inhibitor, single point] | 

Structure (SMILES) | Potency | activity, negative = inhibition
Cc1cccc(NC(=S)N=Nc2c(O)[nH]c3ccccc23)c1 | active: 7.94 µM | 
O=C(c1ccc(-c2ccc([N+](=O)[O-])cc2Cl)o1)N1CCOCC1 | inconclusive: 10 µM [inhibitor, partial curve] | 
CC(=O)Nc1ccc(NC(=O)c2ccc([N+](=O)[O-])cc2Cl)cc1 | inconclusive: 12.6 µM [inhibitor, partial curve] | 
Clc1ccc(N/N=C/c2ccncc2)cc1Cl | inconclusive: 10 µM [inhibitor, partial curve] | 
O=C(Nc1sc(-c2ccccc2)cc1C(=O)O)c1ccccc1 | active: 12.6 µM | 
Cc1ccc2cc3c(NC(=O)CC(C)C)nn(C)c3nc2c1 | inconclusive: 20 µM [inhibitor, partial curve] | 
CCCOC(=O)c1ccc(NC(=O)Cc2csc(C)n2)cc1 |  | inactive: -6.41%
COc1ccccc1NC(=O)Nc1nn(C)c2cccc(OC)c12 | inconclusive: 10 µM [inhibitor, partial curve] | 
CCOc1cc(/C=C2\SC(=N)N(c3nccs3)C2=O)ccc1OCCN1CCOCC1 | inconclusive: 14.1 µM [inhibitor, partial curve] | 
Cc1nc2ccc(S(=O)(=O)NCC(=O)NCCN3CCCCCC3)cc2s1 | inconclusive: 25.1 µM [inhibitor, partial curve, poor fit] | 
Cc1ccc(NS(=O)(=O)c2ccc3[nH]c4c(c3c2)CCCCCC4)cc1Cl |  | inactive: -5.7%
CC(=O)c1c(C)oc2ccc(N(C(=O)c3ccncc3)S(=O)(=O)c3ccccc3)cc12 | inconclusive: 15.8 µM [inhibitor, partial curve] | 
O=C(CSc1nnc2c3ccccc3c3ccccc3c2n1)Nc1ccccc1F | inconclusive: 22.4 µM [inhibitor, partial curve] | 
Cc1ccc(NC(=O)c2cccc3c2-c2ccccc2C3=O)cc1C | inconclusive: 20 µM [inhibitor, partial curve] | 
CCCCn1c(NCc2ccccc2O)nc2ccccc21 | inconclusive: 28.2 µM [inhibitor, single point] | 
CNC(=O)/C(C#N)=C/c1ccc(-c2ccc(OC)cc2[N+](=O)[O-])o1 | inconclusive: 5.62 µM [inhibitor, partial curve] | 
N#C/C(=C\c1cc([N+](=O)[O-])c(N2CCCCC2)cc1N1CCCCC1)c1nn(-c2ccccc2)c(N)c1C#N | inconclusive: 6.31 µM [inhibitor, full curve] | 
CCOc1ccc(C2c3c(oc4ccc(C)cc4c3=O)C(=O)N2Cc2ccc3c(c2)OCO3)cc1OC (configuration not stated) |  | inactive: -3.53%
O=C(Oc1ccccc1C(=S)N1CCCCC1)c1cc([N+](=O)[O-])cc([N+](=O)[O-])c1 | active: 25.1 µM | 
CC1CN(S(=O)(=O)c2cccc(C(=O)OC/C(O)=C(\C#N)c3nc4ccccc4[nH]3)c2)CC(C)O1 (configuration not stated) | inconclusive: 14.1 µM [inhibitor, partial curve] | 
CNC(=O)c1nnsc1S(=O)c1ccc(Cl)cc1 (configuration not stated) | inconclusive: 2.82 µM [inhibitor, full curve] | 
